{
  "source": "the supplement of paper PMC8728848",
  "binders": {"B1": {"name": "ECL (Erythrina cristagalli), Q6YD91 (protein)", "chain": "VETISFSFSEFEPGNNDLTLQGAAIITQSGVLQLTKINQNGMPAWDSTGRTLYTKPVHIWDMTTGTVASFETRFSFSIEQPYTRPLPADGLVFFMGPTKSKPAQGYGYLGVFNNSKQDNSYQTLAVEFDTFSNPWDPPQVPHIGIDVNSIRSIKTQPFQLDNGQVANVVIKYDASSKILLAVLVYPSSGAIYTIAEIVDVKQVLPEWVDVGLSGATGAQRDAAETHDVYSWSFHASLPETND"}},
  "assay_in_all_cases": "glycan array binding signal (z-score within array); higher = stronger binding",
  "conditions_in_all_cases": "glycan notation: IUPAC condensed, linker removed",
  "key": {"[1]": {"target": "Neu5Ac(a2-6)Gal(b1-4)GlcNAc(b1-2)Man(a1-3)[Man(a1-6)]Man(b1-4)GlcNAc(b1-4)GlcNAc", "how_it_was_run": "(§1)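 Glycan array data were curated from 3228 arrays in the Consortium for Functional Glycomics database and kept only where the protein sequence was available. Glycan names were converted to IUPAC-condensed notation, and columns mapping to the same glycan were averaged. The binding signal is a within-array Z-score, averaged across arrays of the same protein sequence at different concentrations or buffers and across linkers. Negative Z-scores can be read as non-binding.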"}, "[2]": {"target": "Neu5Ac(a2-6)Gal(b1-4)GlcNAc(b1-2)Man(a1-3)[Neu5Ac(a2-3)Gal(b1-4)GlcNAc(b1-2)Man(a1-6)]Man(b1-4)GlcNAc(b1-4)GlcNAc", "how_it_was_run": "as §1"}, "[3]": {"target": "Neu5Ac(a2-6)Gal(b1-4)GlcNAc(b1-2)Man(a1-3)[Neu5Ac(a2-6)Gal(b1-4)GlcNAc(b1-2)Man(a1-6)]Man(b1-4)GlcNAc(b1-4)GlcNAc", "how_it_was_run": "as §1"}, "[4]": {"target": "Neu5Ac(a2-6)Gal(b1-4)GlcNAc(b1-2)Man(a1-3)[Neu5Ac(a2-6)Gal(b1-4)GlcNAc(b1-2)Man(a1-6)]Man(b1-4)GlcNAc(b1-4)[Fuc(a1-6)]GlcNAc", "how_it_was_run": "as §1"}, "[5]": {"target": "Neu5Ac(a2-6)Gal(b1-4)GlcNAc(b1-2)Man(a1-6)Man(b1-4)GlcNAc(b1-4)GlcNAc", "how_it_was_run": "as §1"}, "[6]": {"target": "Neu5Ac(a2-6)Gal(b1-4)GlcNAc(b1-2)Man(a1-6)[Gal(b1-4)GlcNAc(b1-2)Man(a1-3)]Man(b1-4)GlcNAc(b1-4)GlcNAc", "how_it_was_run": "as §1"}, "[7]": {"target": "Neu5Ac(a2-6)Gal(b1-4)GlcNAc(b1-2)Man(a1-6)[GlcNAc(b1-2)Man(a1-3)]Man(b1-4)GlcNAc(b1-4)GlcNAc", "how_it_was_run": "as §1"}, "[8]": {"target": "Neu5Ac(a2-6)Gal(b1-4)GlcNAc(b1-2)Man(a1-6)[Man(a1-3)]Man(b1-4)GlcNAc(b1-4)GlcNAc", "how_it_was_run": "as §1"}, "[9]": {"target": "Neu5Ac(a2-6)Gal(b1-4)GlcNAc(b1-2)[Neu5Ac(a2-6)Gal(b1-4)GlcNAc(b1-4)]Man(a1-3)[GlcNAc(b1-4)][Neu5Ac(a2-6)Gal(b1-4)GlcNAc(b1-2)[Neu5Ac(a2-6)Gal(b1-4)GlcNAc(b1-6)]Man(a1-6)]Man(b1-4)GlcNAc(b1-4)GlcNAc", "how_it_was_run": "as §1"}, "[10]": {"target": "Neu5Ac(a2-6)Gal(b1-4)GlcNAc(b1-2)[Neu5Ac(a2-6)Gal(b1-4)GlcNAc(b1-4)]Man(a1-3)[GlcNAc(b1-4)][Neu5Ac(a2-6)Gal(b1-4)GlcNAc(b1-4)Man(a1-6)]Man(b1-4)GlcNAc(b1-4)GlcNAc", "how_it_was_run": "as §1"}, "[11]": {"target": "Neu5Ac(a2-6)Gal(b1-4)GlcNAc(b1-2)[Neu5Ac(a2-6)Gal(b1-4)GlcNAc(b1-6)]Man(a1-6)[Neu5Ac(a2-6)Gal(b1-4)GlcNAc(b1-2)Man(a1-3)][GlcNAc(b1-4)]Man(b1-4)GlcNAc(b1-4)GlcNAc", "how_it_was_run": "as §1"}, "[12]": {"target": "Neu5Ac(a2-6)Gal(b1-4)GlcNAc(b1-3)Gal(b1-3)GlcNAc", "how_it_was_run": "as §1"}, "[13]": {"target": "Neu5Ac(a2-6)Gal(b1-4)GlcNAc(b1-3)Gal(b1-4)GlcNAc", "how_it_was_run": "as §1"}, "[14]": {"target": "Neu5Ac(a2-6)Gal(b1-4)GlcNAc(b1-3)Gal(b1-4)GlcNAc(b1-2)Man(a1-3)[Neu5Ac(a2-6)Gal(b1-4)GlcNAc(b1-3)Gal(b1-4)GlcNAc(b1-2)Man(a1-6)]GalNAc", "how_it_was_run": "as §1"}, "[15]": {"target": "Neu5Ac(a2-6)Gal(b1-4)GlcNAc(b1-3)Gal(b1-4)GlcNAc(b1-3)Gal(b1-4)GlcNAc", "how_it_was_run": "as §1"}, "[16]": {"target": "Neu5Ac(a2-6)Gal(b1-4)GlcNAc(b1-3)Gal(b1-4)GlcNAc(b1-3)Gal(b1-4)GlcNAc(b1-2)Man(a1-3)[Neu5Ac(a2-6)Gal(b1-4)GlcNAc(b1-3)Gal(b1-4)GlcNAc(b1-3)Gal(b1-4)GlcNAc(b1-2)Man(a1-6)]GalNAc", "how_it_was_run": "as §1"}, "[17]": {"target": "Neu5Ac(a2-6)Gal(b1-4)GlcNAc(b1-3)Gal(b1-4)GlcNAc(b1-3)GalNAc", "how_it_was_run": "as §1"}, "[18]": {"target": "Neu5Ac(a2-6)Gal(b1-4)GlcNAc(b1-3)Gal(b1-4)GlcNAc(b1-3)[Neu5Ac(a2-6)Gal(b1-4)GlcNAc(b1-3)Gal(b1-4)GlcNAc(b1-6)]GalNAc", "how_it_was_run": "as §1"}, "[19]": {"target": "Neu5Ac(a2-6)Gal(b1-4)GlcNAc(b1-3)Gal(b1-4)GlcNAc(b1-6)[Gal(b1-3)]GalNAc", "how_it_was_run": "as §1"}, "[20]": {"target": "Neu5Ac(a2-6)Gal(b1-4)GlcNAc(b1-3)Gal(b1-4)[Fuc(a1-3)]GlcNAc(b1-3)Gal(b1-4)[Fuc(a1-3)]GlcNAc", "how_it_was_run": "as §1"}, "[21]": {"target": "Neu5Ac(a2-6)Gal(b1-4)GlcNAc(b1-3)GalNAc", "how_it_was_run": "as §1"}, "[22]": {"target": "Neu5Ac(a2-6)Gal(b1-4)GlcNAc(b1-3)[Neu5Ac(a2-6)Gal(b1-4)GlcNAc(b1-6)]GalNAc", "how_it_was_run": "as §1"}, "[23]": {"target": "Neu5Ac(a2-6)Gal(b1-4)GlcNAc(b1-6)GalNAc", "how_it_was_run": "as §1"}, "[24]": {"target": "Neu5Ac(a2-6)Gal(b1-4)GlcNAc(b1-6)[Gal(b1-3)GlcNAc(b1-3)]Gal(b1-4)Glc", "how_it_was_run": "as §1"}, "[25]": {"target": "Neu5Ac(a2-6)Gal(b1-4)GlcNAc(b1-6)[Gal(b1-3)]GalNAc", "how_it_was_run": "as §1"}, "[26]": {"target": "Neu5Ac(a2-6)Gal(b1-4)GlcNAc6S", "how_it_was_run": "as §1"}, "[27]": {"target": "Neu5Ac(a2-6)GalNAc", "how_it_was_run": "as §1"}, "[28]": {"target": "Neu5Ac(a2-6)GalNAc(b1-4)GlcNAc", "how_it_was_run": "as §1"}, "[29]": {"target": "Neu5Ac(a2-6)GalNAc(b1-4)GlcNAc6S", "how_it_was_run": "as §1"}, "[30]": {"target": "Neu5Ac(a2-6)GlcNAc(b1-4)GlcNAc", "how_it_was_run": "as §1"}},
  "note": "The list shows a part of the results.",
  "data": [
    {"binder": "B1", "values": [
      {"measurement": "glycan array binding signal (z-score)", "setting": "[1]", "result": -0.234},
      {"measurement": "glycan array binding signal (z-score)", "setting": "[2]", "result": -0.246},
      {"measurement": "glycan array binding signal (z-score)", "setting": "[3]", "result": -0.244},
      {"measurement": "glycan array binding signal (z-score)", "setting": "[4]", "result": -0.225},
      {"measurement": "glycan array binding signal (z-score)", "setting": "[5]", "result": -0.364},
      {"measurement": "glycan array binding signal (z-score)", "setting": "[6]", "result": -0.087},
      {"measurement": "glycan array binding signal (z-score)", "setting": "[7]", "result": -0.29},
      {"measurement": "glycan array binding signal (z-score)", "setting": "[8]", "result": -0.436},
      {"measurement": "glycan array binding signal (z-score)", "setting": "[9]", "result": -0.325},
      {"measurement": "glycan array binding signal (z-score)", "setting": "[10]", "result": -0.195},
      {"measurement": "glycan array binding signal (z-score)", "setting": "[11]", "result": -0.477},
      {"measurement": "glycan array binding signal (z-score)", "setting": "[12]", "result": -0.312},
      {"measurement": "glycan array binding signal (z-score)", "setting": "[13]", "result": -0.267},
      {"measurement": "glycan array binding signal (z-score)", "setting": "[14]", "result": 0.195},
      {"measurement": "glycan array binding signal (z-score)", "setting": "[15]", "result": -0.344},
      {"measurement": "glycan array binding signal (z-score)", "setting": "[16]", "result": 0.334},
      {"measurement": "glycan array binding signal (z-score)", "setting": "[17]", "result": -0.177},
      {"measurement": "glycan array binding signal (z-score)", "setting": "[18]", "result": 1.51},
      {"measurement": "glycan array binding signal (z-score)", "setting": "[19]", "result": 0.138},
      {"measurement": "glycan array binding signal (z-score)", "setting": "[20]", "result": -0.189},
      {"measurement": "glycan array binding signal (z-score)", "setting": "[21]", "result": -0.194},
      {"measurement": "glycan array binding signal (z-score)", "setting": "[22]", "result": -0.136},
      {"measurement": "glycan array binding signal (z-score)", "setting": "[23]", "result": -0.164},
      {"measurement": "glycan array binding signal (z-score)", "setting": "[24]", "result": -0.261},
      {"measurement": "glycan array binding signal (z-score)", "setting": "[25]", "result": -0.109},
      {"measurement": "glycan array binding signal (z-score)", "setting": "[26]", "result": -0.501},
      {"measurement": "glycan array binding signal (z-score)", "setting": "[27]", "result": -0.481},
      {"measurement": "glycan array binding signal (z-score)", "setting": "[28]", "result": -0.3},
      {"measurement": "glycan array binding signal (z-score)", "setting": "[29]", "result": -0.061},
      {"measurement": "glycan array binding signal (z-score)", "setting": "[30]", "result": -0.382}
    ]}
  ]
}
